{"source": "the supplement of paper PMC10126150", "note": "Sequences with one replicate were seen in a single cluster, so their values are uncertain.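 Note: ATP exposure 15 min at 22 °C before imaging.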"}
{"test_system": "ATP", "test": "switch fluorescence ratio, 500 uM ATP over buffer (Cy3 cluster intensity, sum of 5 cycles each) (fold (ratio)); higher = stronger signal-on switching upon ATP binding; sequences stand for … in TCGTCGGCAGCGTCAGATGTGTATAAGAGACAGTTTTTTTTTTTTTTTTTTTTTTTTT…TC", "details": "aptamer strand: ATP DNA aptamer (quencher-CACCTGGGGGAGTATTGCGGAGGAAGG + anchor), 100 nM annealed; ATP concentration: 500 uM; one replicate", "how_it_was_run": "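Clusters with intensities outside 100-1000 RFU were excluded. The remaining Cy3-labelled switching-strand clusters on a modified Illumina MiSeq flow-cell had been annealed to 100 nM quencher-labelled ATP aptamer and imaged in selection buffer, then after 15 min with 500 uM ATP at 22 °C, for five cycles separated by NaOH stripping and re-annealing. The fluorescence ratio, averaged per switch-domain sequence, is each cluster's summed target-cycle Cy3 intensity over its summed buffer-cycle Cy3 intensity.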"}
{"sequence": "GTCGGAAGAT", "switch fluorescence ratio": 1.04}
{"sequence": "GTCGGCGGTA", "switch fluorescence ratio": 1.02}
{"sequence": "GTCGGGAAAC", "switch fluorescence ratio": 0.994}
{"sequence": "GTCGGGAAGA", "switch fluorescence ratio": 1.03}
{"sequence": "GTCGGTCGGG", "switch fluorescence ratio": 0.937}
{"sequence": "GTCGGTGGC", "switch fluorescence ratio": 1.11}
{"sequence": "GTCGGTGGTC", "switch fluorescence ratio": 0.998}
{"sequence": "GTCGGTTGCG", "switch fluorescence ratio": 1.03}
{"sequence": "GTCGTAATAT", "switch fluorescence ratio": 1.49}
{"sequence": "GTCGTAGAGC", "switch fluorescence ratio": 0.974}
{"sequence": "GTCGTCGTCA", "switch fluorescence ratio": 1.03}
{"sequence": "GTCGTGAGTG", "switch fluorescence ratio": 1.01}
{"sequence": "GTCGTTTAGG", "switch fluorescence ratio": 1.01}
{"sequence": "GTCTACCTTA", "switch fluorescence ratio": 1.05}
{"sequence": "GTCTCTATTC", "switch fluorescence ratio": 1.03}
{"sequence": "GTCTGAAGAG", "switch fluorescence ratio": 1.01}
{"sequence": "GTCTGAAGTG", "switch fluorescence ratio": 0.981}
{"sequence": "GTCTGGCTCG", "switch fluorescence ratio": 0.943}
{"sequence": "GTCTGTATAC", "switch fluorescence ratio": 1.66}
{"sequence": "GTCTTGGAAT", "switch fluorescence ratio": 0.993}
{"sequence": "GTCTTTAAAA", "switch fluorescence ratio": 0.953}
{"sequence": "GTCTTTAAGT", "switch fluorescence ratio": 0.958}
{"sequence": "GTCTTTCAGG", "switch fluorescence ratio": 0.98}
{"sequence": "GTCTTTCTGC", "switch fluorescence ratio": 0.869}
{"sequence": "GTGAAAATGC", "switch fluorescence ratio": 1.03}
{"sequence": "GTGAACAAAT", "switch fluorescence ratio": 0.974}
{"sequence": "GTGAACGTGG", "switch fluorescence ratio": 1.01}
{"sequence": "GTGAAGAGCT", "switch fluorescence ratio": 1.01}
{"sequence": "GTGAATAGCC", "switch fluorescence ratio": 0.933}
{"sequence": "GTGAATCTA", "switch fluorescence ratio": 0.988}
{"sequence": "GTGAATCTAC", "switch fluorescence ratio": 1.03}
{"sequence": "GTGAATGCTA", "switch fluorescence ratio": 0.982}
{"sequence": "GTGAATTTCA", "switch fluorescence ratio": 1.01}
{"sequence": "GTGACAAGAA", "switch fluorescence ratio": 1.01}
{"sequence": "GTGACACCGC", "switch fluorescence ratio": 1.19}
{"sequence": "GTGACAGAAG", "switch fluorescence ratio": 1.01}
{"sequence": "GTGACAGGA", "switch fluorescence ratio": 0.977}
{"sequence": "GTGACTACTT", "switch fluorescence ratio": 0.99}
{"sequence": "GTGACTTTAT", "switch fluorescence ratio": 0.973}
{"sequence": "GTGAGAAAAG", "switch fluorescence ratio": 1}
{"sequence": "GTGAGAAGCG", "switch fluorescence ratio": 0.991}
{"sequence": "GTGAGGACGT", "switch fluorescence ratio": 0.978}
{"sequence": "GTGAGGAGTC", "switch fluorescence ratio": 0.976}
{"sequence": "GTGAGGCTGC", "switch fluorescence ratio": 0.936}
{"sequence": "GTGAGGG", "switch fluorescence ratio": 0.98}
{"sequence": "GTGAGTCTAT", "switch fluorescence ratio": 0.998}
{"sequence": "GTGATAAAT", "switch fluorescence ratio": 1.29}
{"sequence": "GTGATAGATC", "switch fluorescence ratio": 1.05}
{"sequence": "GTGATATACT", "switch fluorescence ratio": 1.03}
{"sequence": "GTGATCCTAG", "switch fluorescence ratio": 0.996}
{"sequence": "GTGATCCTGG", "switch fluorescence ratio": 1.04}
{"sequence": "GTGATCTCTC", "switch fluorescence ratio": 1.03}
{"sequence": "GTGATGGCCC", "switch fluorescence ratio": 1.05}
{"sequence": "GTGATTAGTT", "switch fluorescence ratio": 1.04}
{"sequence": "GTGATTCCGG", "switch fluorescence ratio": 1}
{"sequence": "GTGATTTCAC", "switch fluorescence ratio": 1.04}
{"sequence": "GTGATTTCGT", "switch fluorescence ratio": 0.973}
{"sequence": "GTGCACCATA", "switch fluorescence ratio": 0.965}
{"sequence": "GTGCATTCAC", "switch fluorescence ratio": 1.04}
{"sequence": "GTGCCACAGG", "switch fluorescence ratio": 1.1}
{"sequence": "GTGCCACCTA", "switch fluorescence ratio": 1.01}
{"sequence": "GTGCCGACTG", "switch fluorescence ratio": 1.02}
{"sequence": "GTGCCGCATA", "switch fluorescence ratio": 2.25}
{"sequence": "GTGCCGGAGT", "switch fluorescence ratio": 1.02}
{"sequence": "GTGCGACCTT", "switch fluorescence ratio": 1.18}
{"sequence": "GTGCGAGGAG", "switch fluorescence ratio": 1.03}
{"sequence": "GTGCGCAGTA", "switch fluorescence ratio": 1.07}
{"sequence": "GTGCGCTGTA", "switch fluorescence ratio": 1.01}
{"sequence": "GTGCGGAGCG", "switch fluorescence ratio": 0.97}
{"sequence": "GTGCTAAAGG", "switch fluorescence ratio": 0.97}
{"sequence": "GTGCTATGGT", "switch fluorescence ratio": 0.976}
{"sequence": "GTGCTATTTA", "switch fluorescence ratio": 1.01}
{"sequence": "GTGCTCCCGT", "switch fluorescence ratio": 1.07}
{"sequence": "GTGCTGATAG", "switch fluorescence ratio": 0.992}
{"sequence": "GTGCTGCATG", "switch fluorescence ratio": 0.991}
{"sequence": "GTGCTTGGAG", "switch fluorescence ratio": 1.04}
{"sequence": "GTGCTTGGCT", "switch fluorescence ratio": 1.06}
{"sequence": "GTGGAAACGC", "switch fluorescence ratio": 1.05}
{"sequence": "GTGGAAGTTA", "switch fluorescence ratio": 1}
{"sequence": "GTGGAATCTA", "switch fluorescence ratio": 1.02}
{"sequence": "GTGGAATTAT", "switch fluorescence ratio": 1}
{"sequence": "GTGGACGGAC", "switch fluorescence ratio": 0.967}
{"sequence": "GTGGATCATT", "switch fluorescence ratio": 0.995}
{"sequence": "GTGGCACTGC", "switch fluorescence ratio": 1.01}
{"sequence": "GTGGCAGAAG", "switch fluorescence ratio": 1.02}
{"sequence": "GTGGCAGTAC", "switch fluorescence ratio": 4.13}
{"sequence": "GTGGCATTGG", "switch fluorescence ratio": 1.02}
{"sequence": "GTGGCCAAAA", "switch fluorescence ratio": 1}
{"sequence": "GTGGCCGCAG", "switch fluorescence ratio": 1.05}
{"sequence": "GTGGCCGCGA", "switch fluorescence ratio": 1.16}
{"sequence": "GTGGCGGAGT", "switch fluorescence ratio": 0.974}
{"sequence": "GTGGCGTTGG", "switch fluorescence ratio": 1}
{"sequence": "GTGGGAAGG", "switch fluorescence ratio": 1.03}
{"sequence": "GTGGGACAGA", "switch fluorescence ratio": 1.03}
{"sequence": "GTGGGACTAC", "switch fluorescence ratio": 1.45}
{"sequence": "GTGGGAGCCG", "switch fluorescence ratio": 1.04}
{"sequence": "GTGGGATGGT", "switch fluorescence ratio": 0.989}
{"sequence": "GTGGGCAGGA", "switch fluorescence ratio": 0.977}
{"sequence": "GTGGGCGAAA", "switch fluorescence ratio": 1.05}
{"sequence": "GTGGGGCCAT", "switch fluorescence ratio": 1.01}
{"sequence": "GTGGGGCTTG", "switch fluorescence ratio": 0.995}
{"sequence": "GTGGGGGCTA", "switch fluorescence ratio": 0.955}
{"sequence": "GTGGGGGCTC", "switch fluorescence ratio": 1.01}
{"sequence": "GTGGGGTTAG", "switch fluorescence ratio": 0.993}
{"sequence": "GTGGGTGGCA", "switch fluorescence ratio": 0.978}
{"sequence": "GTGGGTTTCG", "switch fluorescence ratio": 0.979}
{"sequence": "GTGGTACCCA", "switch fluorescence ratio": 0.982}
{"sequence": "GTGGTCTCTT", "switch fluorescence ratio": 0.953}
{"sequence": "GTGGTCTTAG", "switch fluorescence ratio": 0.966}
{"sequence": "GTGGTGAATT", "switch fluorescence ratio": 1.01}
{"sequence": "GTGGTTGAA", "switch fluorescence ratio": 0.985}
{"sequence": "GTGTAAAAAC", "switch fluorescence ratio": 1.02}
{"sequence": "GTGTAAACGA", "switch fluorescence ratio": 1.01}
{"sequence": "GTGTAACGTA", "switch fluorescence ratio": 1.01}
{"sequence": "GTGTAAGCTT", "switch fluorescence ratio": 0.988}
{"sequence": "GTGTAATCCC", "switch fluorescence ratio": 0.991}
{"sequence": "GTGTAATGGG", "switch fluorescence ratio": 1.02}
{"sequence": "GTGTACACGC", "switch fluorescence ratio": 1.01}
{"sequence": "GTGTACGTCG", "switch fluorescence ratio": 0.922}
{"sequence": "GTGTACTTGG", "switch fluorescence ratio": 1.05}
{"sequence": "GTGTAGCCTA", "switch fluorescence ratio": 1.01}
{"sequence": "GTGTATCATA", "switch fluorescence ratio": 0.998}
{"sequence": "GTGTATTGCC", "switch fluorescence ratio": 1.01}
{"sequence": "GTGTCAGTCT", "switch fluorescence ratio": 1.07}
{"sequence": "GTGTCATATA", "switch fluorescence ratio": 0.991}
{"sequence": "GTGTCATATT", "switch fluorescence ratio": 0.981}
{"sequence": "GTGTCCAGTC", "switch fluorescence ratio": 1.03}
{"sequence": "GTGTCCATAT", "switch fluorescence ratio": 0.986}
{"sequence": "GTGTCCCCTC", "switch fluorescence ratio": 1.06}
{"sequence": "GTGTCCGCTA", "switch fluorescence ratio": 2.17}
{"sequence": "GTGTCCTGTT", "switch fluorescence ratio": 0.976}
{"sequence": "GTGTCGACCT", "switch fluorescence ratio": 1.02}
{"sequence": "GTGTCGCGTT", "switch fluorescence ratio": 0.985}
{"sequence": "GTGTCTGGG", "switch fluorescence ratio": 0.985}
{"sequence": "GTGTGAAC", "switch fluorescence ratio": 0.994}
{"sequence": "GTGTGAACTG", "switch fluorescence ratio": 1.04}
{"sequence": "GTGTGACCTC", "switch fluorescence ratio": 0.984}
{"sequence": "GTGTGGCGTA", "switch fluorescence ratio": 1}
{"sequence": "GTGTGGTAAT", "switch fluorescence ratio": 1.01}
{"sequence": "GTGTTAAGCA", "switch fluorescence ratio": 0.988}
{"sequence": "GTGTTAGATA", "switch fluorescence ratio": 1.04}
{"sequence": "GTGTTATGGA", "switch fluorescence ratio": 1.03}
{"sequence": "GTGTTCAATT", "switch fluorescence ratio": 0.984}
{"sequence": "GTGTTCGAAG", "switch fluorescence ratio": 0.956}
{"sequence": "GTGTTGACGT", "switch fluorescence ratio": 0.972}
{"sequence": "GTGTTGATGG", "switch fluorescence ratio": 0.996}
{"sequence": "GTGTTGTAAT", "switch fluorescence ratio": 1.02}
{"sequence": "GTGTTTCAGC", "switch fluorescence ratio": 1}
{"sequence": "GTGTTTGGG", "switch fluorescence ratio": 0.981}
{"sequence": "GTGTTTTTCT", "switch fluorescence ratio": 1.01}
{"sequence": "GTTAAAGTGT", "switch fluorescence ratio": 0.989}
{"sequence": "GTTAAATATC", "switch fluorescence ratio": 0.996}
{"sequence": "GTTAAATCTC", "switch fluorescence ratio": 1.03}
